Source: the supplement of paper PMC12632987
In all, about 1,800 sequences were measured (“median log2 fold change of GCK-ALFA target abundance (FLAG IP / Myc IP barcode read proportion)”: median about 0.14, lowest 2% from about -0.84 on). The list shows a part of the results.

T1: TRAF2, Q12933
T1 chain: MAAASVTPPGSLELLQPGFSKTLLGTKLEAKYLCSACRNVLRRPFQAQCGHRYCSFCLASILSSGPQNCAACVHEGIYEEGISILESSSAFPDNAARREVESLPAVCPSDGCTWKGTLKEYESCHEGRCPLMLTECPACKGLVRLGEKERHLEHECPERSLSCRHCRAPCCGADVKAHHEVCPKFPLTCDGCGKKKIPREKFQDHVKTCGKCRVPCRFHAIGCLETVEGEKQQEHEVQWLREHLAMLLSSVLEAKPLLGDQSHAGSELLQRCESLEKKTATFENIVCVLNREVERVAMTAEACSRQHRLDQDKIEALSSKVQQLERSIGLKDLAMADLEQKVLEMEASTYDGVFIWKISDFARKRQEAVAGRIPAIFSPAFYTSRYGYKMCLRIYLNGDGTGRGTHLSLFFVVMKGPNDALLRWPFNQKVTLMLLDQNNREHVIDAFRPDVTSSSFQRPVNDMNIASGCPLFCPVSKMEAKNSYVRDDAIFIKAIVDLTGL

B1: traf2_out_11_169_859 (protein)
chain: KEEEFNRKLIDFALKVEDEAKKKLKEFALELAKKYGLNVEEVKKIFEENKNSSLSKIASNLIKYFKEKGKEEAAEEILKKHEELKEEINKKVSAKIKELE
B2: traf2_out_20_3_2077 (protein)
chain: EELLEKLKKEIDEALKLLKEAAKLADPETAKRLKALIEKLKASEELSIDDRLVVISEVRREVRRLAEEARARGDEELAKVLEEAADKLNKAAQLAYKILQ
B3: traf2_out_17_162_1620 (protein)
chain: MSIEEELEELEEELEELEKKLKELEEKLKNIDKLSKEELTDLLVEASEARRRALEAIERLDELKGEIDPETYEELKARFTELAEKFQKIANKLYKKLLEL
B4: traf2_out_20_3_2247 (protein)
chain: EELREKAKEELEKIKELLKKAAPLLPKEDAAKAEKLLKEAEKAFETDLTDALVYVSELRRLALERAQAALAAGDEETAKLLKELAEAAQRLAQYLYKLIE
B5: traf2_out_18_117_1795 (protein)
chain: SEREEIIEELEELAERLGKAASELGKAVLDNWEKLTPEEKSEAMDVLADLSAVRRRAQELIHKIKTENIPVEEARKELEELKKEAEAALAAAEAKIARIK
B6: traf2_out_14_166_1275 (protein)
chain: MSPEEIERIRKIVDELEPLTDAAVARLEAILAANADKLTPEQLARVRALLDLARRNIGSSAINAIREIAAIFAAAGLAEAAAAARALADELEAKLKELNK
B7: traf2_out_13_95_1058 (protein)
chain: SRELAEKINELADEAEEEILAILDEAAEELADDPEAVAVLDEARRLALTRGWTAALALLREAAAARPEHRDAFLATIERIEEVRRRLGKKVAELIKKEKE
B8: traf2_out_11_169_835 (protein)
chain: EEAAKNRAITDFALELNDEGKEKLREFARKLAKEAGLDVAEVDKIFEANKGKSLSAIAGALIAYFKSQGKEDVAKAVEEKYEELKEEINKKATAFIKSLE
B9: traf2_out_16_104_1400 (protein)
chain: EAAKQAEFEAIIAELEAIAEELQKIANEIYKLYEKADPEKKVELSDLLVEASEARRFALEAAERARRALEEGGDLEEARKALKEAREKFERVKKRVEELK
B10: traf2_out_18_157_1817 (protein)
chain: SHEEELLELAKKAQEVVDLGDKLVEESEGKSLEEIEKLLLETVEEMVKLLESVPKETRYHILTSTVRRTVEKLKEKRGISEEEAKELYEKALKKIEELLK
B11: traf2_out_18_3_1896 (protein)
chain: SSEELKEISEKIDEIIDEVTAKAREVLDRLAAEHPEVAAEVDALRADLEAGAGPFGILEALAELAKKAGDEELAKEIEEFLKEKKKELQELVDKYLELRK
B12: traf2_out_18_167_1855 (protein)
chain: EEELKKKLEEATDELVKLSEVKRLARTALQLLETDPAAFPAAKAALIAALRAHGELAHLADRLEAAPPEEQPAVLEEIVEEAQRLANEKYKEIEELRKKL
B13: traf2_out_15_48_1346 (protein)
chain: DIEKEQKIASEIADDSDKLKDKVAKELEELQKKANPEEAAILDELIAAIRSGASLRTVRGLLLQAQPKFSPETAAKLKALAEEIDELIRENSKRYNEVLK
B14: traf2_out_16_171_1435 (protein)
chain: SMEEREKELKEEIEEDAERLIERMETAVEMTPLISKETGLSVEQIAKGFRSTMTDRIEALRKHYLEKAKDMSEEVKKFIEEKFEEVEKALEKAVKEILEK
B15: traf2_out_13_95_1084 (protein)
chain: SEETNKKIMEIADEMLDKSLKILTELLEKVKDDPEMKKKVEEAKYLAEHKGINAAIHLLEELSKENEEYKELLDEAIEKLKKLKREAGRKVAELLKEEEE
B16: traf2_out_16_104_1411 (protein)
chain: AAARDAEFDAIIAELEAIAERLGKIANKLYKKMETASPEEKKKLTDALVEASELRRRALEAAVAAREARATGGDLAAAKKTLAELEKEAKKVEEKAKKLF
B17: traf2_out_13_95_1117 (protein)
chain: SREVAKKIMEIADKMEEKRLKLLEELLKKAKAAGKAEEEIQAILEFAKHGTINEVIHRLRELAEKYPEMKAEFDATIAKLEEIRREAGREVAKILKEEEE
B18: traf2_out_1_18_938 (protein)
chain: MTPEELRFAQELAGKLHKALQDARENYAKDPEAAIKALKETAEKLIKEALEKKNELALISMSAIFDVYAREAKEEGKEKLAKAFEEIREKFKKAYEELKK
B19: traf2_out_5_63_2364 (protein)
chain: SERDRLTALAREADRLVQELLEAKKAGDEEKVEELIKRAVADPELARLVLGILKGEAKYYELLGNKPEEAKLAKELAERLEKAMAEAEAERAAAAAAAAA
B20: traf2_out_20_3_2225 (protein)
chain: EELEKEAEKKLEEALKKLKEIEKKADPKTKAKIKAMIKKLKEARELDPVDRLVVVSEVQRTLLELAQEAKAAGNEKLAKLLEEAAELLQKLKQLLYQIIE
B21: traf2_out_18_117_1780 (protein)
chain: AERERLIERAEELAERLDEAASRLGKVFLENYEKLTPEEKSEIMDVLADLTAVRREALLLIQRIRAGEVPVEEARRRLEELEVRADAAIAAAEARIARIE
B22: traf2_out_18_167_1821 (protein)
chain: SEETKKKIEELTDELVKVSEIRRLALQALEALRTDPAAAPAARAALIAALEEVPEFRPWAARLRAAPEAELPALLEEIAEEAGRRAQELYDEREELLKKS
B23: traf2_out_12_187_956 (protein)
chain: SVKDELLEAAKAAVKQAKKKLKEHADTDPEVQEFLEKLEELEKLLKKHPEIAADLLVAASAIIRYMDLIEEGAPAEQIEAARKKAKELLEEALKEAKKLE
B24: traf2_out_20_3_2263 (protein)
chain: EELRKELEEELRKARELLEEIAPELPPEDAARLRALLEKAEEALKTDYTDALVYVSELRRLALELAERARAEGNEELAARLRELADRYGRAAYLLYKIIE
B25: traf2_out_11_155_706 (protein)
chain: EKKRELQNELVDKNIEIEDKLRAEVDAIAAAAAAAHPEHAAAIAAVRAESAPFSGTTYARLMARRFRELGLDDEAARVEALLEKAQKEKNKIYKEIEAKM
B26: traf2_out_18_167_1875 (protein)
chain: SAELEKEYQEASDRLVELSEIRRALLLALEALKRSREEARAVLEAALARFPDSEVLKEALEVAETKSPEELRAFLEEEAERLQKEANEEYKKLEELRKKK
B27: traf2_out_14_166_1285 (protein)
chain: MSPEEIERIREIVDKLEPLNDEAVKKAEEILEKNKDKFSPEDLKRLEELLEIARRNIGSSAINALYEMSEIAKKAGLEEAAKEFKELADKLEKKLSELNK
B28: traf2_out_8_15_2554 (protein)
chain: SIEEAAEKDIKRLEALSDGDKESLIRTLLGMAKAELRYAEILAEEGRKEEALRSLEHALIYAERALELAKEIGSPDLEAIKKEVEEIRKRVEELRKKIEA
B29: traf2_out_1_27_995 (protein)
chain: STEEETELIREAMKKMANSSLEEKLEIARELIRRMHEVSVGSARTAAVLLVSTMKTEEEFEALLEAIEATFRELGLSPEEIARIRRQMETMWELLKKAYA

Target: T1, TRAF2, Q12933
Assay: median log2 fold change of GCK-ALFA target abundance (FLAG IP / Myc IP barcode read proportion) (log2 ratio); each designed protein is fused to an ALFA-tag nanobody in HEK293 cells to bring the named protein to FLAG-tagged glucokinase (GCK); Myc marks an untargeted standard; higher = target protein stabilised (more abundant)
Settings: target protein: 3xFLAG-MCP-GCK-ALFA reporter; HEK293 landing pad (RPLP)
In short: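 HEK293 landing-pad cells received a recombined binder library fused to the ALFA nanobody and were induced with 2 μg mL^−1 doxycycline, then transfected with a plasmid encoding a FLAG-tagged target and a Myc-tagged standard. Lysates were collected after 48 h for anti-FLAG and anti-Myc immunoprecipitation, and the circular RNA barcodes were reverse transcribed, amplified and sequenced. Target abundance for each binder is the median log2 ratio of FLAG to Myc barcode read proportions. Barcodes had to reach a proportion of at least 10^−7 in both replicates, each binder needed at least 3 barcodes per replicate, a pseudocount of 10^−6 was applied, and the two replicates were pooled.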

Row | Binder | median log2 fold change
1 | B1 | 0.148
2 | B2 | 0.162
3 | B3 | -0.461
4 | B4 | 0.336
5 | B5 | 0.171
6 | B6 | 0.268
7 | B7 | -0.24
8 | B8 | 0.267
9 | B9 | 0.165
10 | B10 | 0.178
11 | B11 | -0.17
12 | B12 | 0.405
13 | B13 | 0.203
14 | B14 | 0.26
15 | B15 | 0.0732
16 | B16 | 0.0952
17 | B17 | -0.0888
18 | B18 | 0.0715
19 | B19 | -0.212
20 | B20 | -0.0581
21 | B21 | -0.0221
22 | B22 | 0.0984
23 | B23 | 0.138
24 | B24 | 0.115
25 | B25 | 0.311
26 | B26 | 0.229
27 | B27 | 0.332
28 | B28 | 0.292
29 | B29 | -0.292
